{"source": "PubChem BioAssay AID504332", "about": "(National Center for Advancing Translational Sciences (NCATS), 2011)", "note": "The campaign covered roughly 350,000 compounds. About 31,000 (8.9%) were called active. This list was built around the results that the source calls inconclusive (neither active nor inactive); the mix of calls is not that of the screen. The call rests on the fitted dose curve; in most records, active means well fitted inhibition curve with a large enough effect; inconclusive means small, poorly fitted or top-dose-only effect; inactive means no such curve, though single readings can be large or run the other way. Potencies of inconclusive entries are doubtful fits and often do not repeat. On the % scale 0 is the no-effect control and ±100 the full control effect; potency means the concentration at half of the fitted maximal effect; tags describe the fitted curve by direction and shape."}
{"target": "Histone-lysine N-methyltransferase EHMT2 (Homo sapiens) (UniProt Q96KQ7)", "sequence (Q96KQ7 whole entry, looked up)": "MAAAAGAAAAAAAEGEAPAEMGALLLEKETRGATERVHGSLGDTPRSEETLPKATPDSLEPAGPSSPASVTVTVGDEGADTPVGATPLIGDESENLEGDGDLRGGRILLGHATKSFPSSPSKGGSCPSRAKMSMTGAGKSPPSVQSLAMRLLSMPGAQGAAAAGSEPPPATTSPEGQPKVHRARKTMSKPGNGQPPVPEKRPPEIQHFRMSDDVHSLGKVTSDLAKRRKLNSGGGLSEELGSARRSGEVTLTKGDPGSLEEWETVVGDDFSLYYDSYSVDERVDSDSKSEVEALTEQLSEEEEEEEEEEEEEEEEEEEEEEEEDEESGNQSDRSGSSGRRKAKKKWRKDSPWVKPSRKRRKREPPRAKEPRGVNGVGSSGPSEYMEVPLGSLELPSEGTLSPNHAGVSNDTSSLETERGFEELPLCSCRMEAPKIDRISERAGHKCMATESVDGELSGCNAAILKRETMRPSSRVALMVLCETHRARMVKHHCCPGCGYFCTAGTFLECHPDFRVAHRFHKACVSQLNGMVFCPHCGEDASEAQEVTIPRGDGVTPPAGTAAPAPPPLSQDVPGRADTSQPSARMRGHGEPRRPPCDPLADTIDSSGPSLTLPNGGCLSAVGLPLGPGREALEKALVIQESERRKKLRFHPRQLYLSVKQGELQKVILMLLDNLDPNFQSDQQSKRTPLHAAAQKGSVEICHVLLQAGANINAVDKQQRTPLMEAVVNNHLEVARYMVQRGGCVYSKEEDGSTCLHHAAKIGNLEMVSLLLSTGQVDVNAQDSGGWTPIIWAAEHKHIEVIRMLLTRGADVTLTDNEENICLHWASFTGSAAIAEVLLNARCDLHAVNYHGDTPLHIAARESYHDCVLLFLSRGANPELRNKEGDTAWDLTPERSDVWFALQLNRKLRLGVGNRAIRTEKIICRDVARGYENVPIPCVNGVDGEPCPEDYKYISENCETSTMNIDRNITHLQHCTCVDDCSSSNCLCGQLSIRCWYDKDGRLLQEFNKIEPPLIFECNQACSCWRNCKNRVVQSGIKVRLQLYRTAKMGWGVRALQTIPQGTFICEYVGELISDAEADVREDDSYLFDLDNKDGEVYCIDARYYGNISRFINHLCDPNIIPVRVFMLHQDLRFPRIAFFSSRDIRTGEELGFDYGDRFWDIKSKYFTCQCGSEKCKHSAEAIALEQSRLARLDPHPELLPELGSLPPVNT", "experiment": "qHTS Assay for Inhibitors of Histone Lysine Methyltransferase G9a; further: nearly all actives have a fitted effect of over 75% in size", "conditions": "G9a H3K9 monomethylation, AlphaScreen, 2 h; activity, negative = inhibition: at 59 µM (top of the series) unless noted", "in_short": "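Quantitative HTS format: methyltransferase activity on a biotin-tagged H3K9 peptide is measured by AlphaScreen, using a rabbit anti-monomethyl-H3K9 antibody with streptavidin donor and anti-IgG acceptor beads. Final levels are 20 nM enzyme, 500 nM peptide, 20 uM SAM; 2 h RT.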"}
{"smiles": "COCc1cc(=O)[nH]c(/N=C(\\N)Nc2cccc(C)c2)n1", "Potency": "inconclusive: 0.282 µM [inhibitor, partial curve, poor fit]"}
{"smiles": "Cc1noc(NS(=O)(=O)c2ccc(NC(=O)c3oc4ccc(Cl)cc4c3C)cc2)c1C", "Potency": "inconclusive: 79.4 µM [inhibitor, single point]"}
{"smiles": "Cc1cc(NC(=O)CSc2nnc(N)s2)c([N+](=O)[O-])cc1C", "Potency": "inconclusive: 70.8 µM [inhibitor, partial curve]"}
{"smiles": "Cc1c(C(=O)/C=C/N(C)C)nnn1-c1ccc(Cl)c(Cl)c1", "Potency": "inconclusive: 89.1 µM [inhibitor, partial curve, poor fit]"}
{"smiles": "CC(C)c1ccc2c(c1)C1Cc3ccccc3C1N2", "note": "(centres undefined)", "Potency": "inconclusive: 10 µM [inhibitor, partial curve, poor fit]"}
{"smiles": "O=C(Cn1c(=O)n(-c2ccc(F)cc2)c(=O)c2sc3ccccc3c21)N1CCCC1", "activity, negative = inhibition": "inactive: -21.3%"}
{"smiles": "CCCCCC(=O)Nc1cccc(C2=NOC3(C2)C[C@H](C(N)=O)N(C(=O)CC#N)C3)c1", "note": "(some centres undefined)", "Potency": "inconclusive: 7.94 µM [inhibitor, single point]"}
{"smiles": "CC(=O)N1N=C(c2c(-c3ccccc3)c3cc(Br)ccc3[nH]c2=O)CC1c1ccco1", "note": "(centres undefined)", "Potency": "active: 50.1 µM"}
{"smiles": "COc1cccc(-c2nc(SCC(=O)Nc3ccc4c(c3)OCO4)c(-c3ccccc3)[nH]2)c1", "Potency": "active: 8.91 µM"}
{"smiles": "CCN(CC)S(=O)(=O)c1ccc(Cl)c(C(=O)Oc2cccnc2)c1", "Potency": "inconclusive: 44.7 µM [inhibitor, partial curve, poor fit]"}
{"smiles": "CCOC(=O)c1ccc(NC(=O)CSc2nccn2C)cc1", "activity, negative = inhibition": "inconclusive: -77.4% [inhibitor]"}
{"smiles": "Cc1ccc(N2CC(C(=O)OCc3ccccc3F)CC2=O)cc1", "note": "(centres undefined)", "Potency": "inconclusive: 39.8 µM [inhibitor, single point]"}
{"smiles": "CN(CCn1ccnc1)Cc1cn(-c2ccccc2)nc1-c1ccc2c(c1)OCO2", "Potency": "inconclusive: 35.5 µM [inhibitor, partial curve, poor fit]"}
{"smiles": "CC(C)CC(=O)NC(c1ccccc1Cl)c1c(O)ccc2ccccc12", "note": "(centres undefined)", "Potency": "inconclusive: 35.5 µM [inhibitor, single point]"}
{"smiles": "CC(C)(C)c1ccc(OCCCNCc2ccccc2)cc1", "Potency": "active: 10 µM"}
{"smiles": "Cc1cc(/C=C2/C(=N)N3C(=NC2=O)SN=C3S(C)(=O)=O)c(C)n1-c1ccc(F)cc1", "Potency": "active: 39.8 µM"}
{"smiles": "O=C(CSc1nnc(Cc2ccc(Cl)cc2)o1)Nc1ccccc1", "Potency": "inconclusive: 50.1 µM [inhibitor, partial curve, poor fit]"}
{"smiles": "COc1ccc(CCn2cc3c(c2-c2ccccc2Br)c(=O)n(C)c(=O)n3C)cc1OC", "Potency": "inconclusive: 28.2 µM [inhibitor, partial curve, poor fit]"}
{"smiles": "Cc1ccc(NC(=O)C2C3C=CC4(CN(Cc5cccnc5)C(=O)C24)O3)cc1F", "note": "(centres undefined)", "Potency": "active: 44.7 µM"}
{"smiles": "CC(=O)c1cccc(NC(=O)CCc2nc3sc4c(c3c(=O)[nH]2)CCCC4)c1", "Potency": "inconclusive: 79.4 µM [inhibitor, partial curve, poor fit]"}
{"smiles": "COc1ccccc1-c1nc(C(F)(F)F)c(OC)o1", "Potency": "inconclusive: 70.8 µM [inhibitor, single point]"}
{"smiles": "O=[N+]([O-])c1cc(-c2cnc3ccccc3n2)ccc1Cl", "activity, negative = inhibition": "inactive: -3.09% [at 102 µM]"}
{"smiles": "CCN(CC)S(=O)(=O)c1cccc(NC(=O)CCNC(=O)NC23CC4CC(CC(C4)C2)C3)c1", "Potency": "active: 50.1 µM"}
{"smiles": "O=C(O)c1cc(-c2ccc(/C=c3\\sc4nc5ccc(Br)cc5n4c3=O)o2)ccc1Cl", "Potency": "active: 0.794 µM"}
{"smiles": "COC(=O)c1ccccc1NC(=O)CN1C(=O)c2ccccc2S1(=O)=O", "Potency": "inconclusive: 1.78 µM [inhibitor, full curve, poor fit]"}
{"smiles": "CCC(=O)Nc1cccc2c1C(=O)N(C)C2=O", "Potency": "inconclusive: 3.55 µM [inhibitor, single point]"}
{"smiles": "Cc1cccc(N2CCN(S(=O)(=O)c3cc(Br)cc4c3N(C(=O)C3CC3)CC4)CC2C)c1", "note": "(centres undefined)", "activity, negative = inhibition": "inactive: -32.6%"}
{"smiles": "CC(=O)NC(c1ccco1)c1cc(Br)c2cccnc2c1O", "note": "(centres undefined)", "activity, negative = inhibition": "inactive: 7.84% [at 12.7 µM]"}
{"smiles": "O=C(Nc1cc(S(=O)(=O)N2CCCCC2)ccc1N1CCOCC1)c1ccc(F)cc1", "activity, negative = inhibition": "inactive: -33.3% [at 102 µM]"}
{"smiles": "O=C1C=CC(=O)N1c1ccc(O)cc1", "Potency": "active: 1 µM"}
{"smiles": "Cc1ccc(C(c2nnnn2CCc2ccccc2)N2CCSCC2)cc1", "note": "(centres undefined)", "Potency": "inconclusive: 0.355 µM [inhibitor, full curve, poor fit]"}
{"smiles": "CCc1nc2sc3ccccc3c(=O)c2c(=O)n1Cc1ccco1", "activity, negative = inhibition": "inactive: -18.6%"}
{"smiles": "CN1C(=O)Cc2cc(S(=O)(=O)CCC(=O)Nc3cccc(C(F)(F)F)c3)ccc21", "activity, negative = inhibition": "inactive: -17.1%"}
{"smiles": "COC(=O)Nc1ccc(=O)n(Cc2c(Cl)cccc2Cl)c1", "Potency": "active: 70.8 µM"}
{"smiles": "CCOC(=O)C1(C)C=C(Nc2ccc(C(N)=O)cc2)C(=O)N1c1ccccc1", "note": "(centres undefined)", "activity, negative = inhibition": "inactive: 1.91%"}
{"smiles": "Cc1[nH]nc2c1C(c1cnn(C)c1)C(C#N)=C(N)O2", "note": "(centres undefined)", "Potency": "inconclusive: 89.1 µM [inhibitor, single point]"}
{"smiles": "COC(=O)CN1C(=O)Nc2ccc(Br)cc2C1c1ccccc1Cl", "note": "(centres undefined)", "Potency": "active: 70.8 µM"}
{"smiles": "Cc1cccc2[nH]c(CN(C)C(=O)CC3C(=O)NCCN3CC(C)(C)C)nc12", "note": "(centres undefined)", "Potency": "inconclusive: 89.1 µM [inhibitor, single point]"}
{"smiles": "CCn1cnc2sc(C(=O)N3CCN(c4ccc(OC)cc4)CC3)c(C)c2c1=O", "Potency": "inconclusive: 79.4 µM [inhibitor, single point]"}
{"smiles": "COc1ccccc1Nc1nc(N)nc(CN2CCN(c3ccccc3)CC2)n1", "Potency": "inconclusive: 1.26 µM [inhibitor, partial curve, poor fit]"}
{"smiles": "CCOc1ccc(CCNC(=O)CCCc2nnc3n(CC(C)C)c(=O)c4sccc4n23)cc1", "activity, negative = inhibition": "inactive: 1.71%"}
{"smiles": "COc1ccc2c(Sc3ccccc3)c(C(=O)NCc3cccc(OC)c3OC)[nH]c2c1", "Potency": "inconclusive: 39.8 µM [inhibitor, single point]"}
{"smiles": "C(=C\\c1ccccc1)/C=N/Nc1nc2ccccc2[nH]1", "Potency": "inconclusive: 79.4 µM [inhibitor, single point]"}
{"smiles": "O=S(=O)(Nc1ncccn1)c1ccccc1", "Potency": "inconclusive: 0.158 µM [inhibitor, partial curve, poor fit]"}
